Assay results as given in PubChem BioAssay AID1466 (National Center for Advancing Translational Sciences (NCATS), 2008).
Hit rate of the full screen: of about 200,000 compounds, about 10 (0.005%) were called active. The shares of active, inactive and inconclusive entries below differ from those in the screen. Calls follow the shape of the dose curve; as a rule, active = well fitted inhibition curve with a large enough effect; inconclusive = small, poorly fitted or top-dose-only effect, or effect the other way, or another doubt; inactive = no such curve, though single readings can be large or run the other way. Potencies of inconclusive entries are left out as doubtful fits.

molecular target: Lysosomal alpha-glucosidase (Homo sapiens) (UniProt P10253); assay: qHTS Assay for Inhibitors of Human alpha-Glucosidase as a Potential Chaperone Treatment of Pompe Disease; conditions: purified human GAA, 4-MU-alpha-glucoside fluorescence; activity change, negative = inhibition: at 76.9 µM (top of the series) unless noted;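 as to activity change, negative = inhibition: plate controls were uninhibited enzyme wells for no effect and no-enzyme background for full effect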
How it was run: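 Human enzyme at 4 nM with 400 uM 4-methylumbelliferyl-alpha-D-pyranoside, citrate/phosphate buffer pH 5.0, 0.005% Tween-20, 20 min at room temperature. Compounds up to 77 uM. 4-MU fluorescence (Ex 365/Em 440) read after NaOH/glycine stop; AC50 from Hill fit.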
Potency is read from the fitted curve at half-maximal effect; tags tell the direction and shape of the fitted curve.

| SMILES | activity change, negative = inhibition | Potency |
| --- | --- | --- |
| O=C(CN1CCOc2ccccc21)NCc1ccco1 | inactive: 7.32% [at 15.4 µM] | – |
| C=CCOC(=O)C1C(=O)CC(C)(O)C(C(=O)OCC=C)C1c1ccc(OCC)cc1 (stereo not drawn) | – | inconclusive [inhibitor, single point] |
| N#Cc1c(N2CCCCC2)nc(N)c2c(N)nc3c(c12)CC(CCl)O3 (stereo not drawn) | – | inconclusive [activator, single point] |
| OCC1(Cc2ccccc2)CCN(Cc2cccc(F)c2F)CC1 | – | inconclusive [inhibitor, single point] |
| O=C(c1cc2ccccc2c(=O)o1)N1CCc2ccccc2C1 | inconclusive: -17% [inhibitor] | – |
| CCCCNC(=O)C(=O)N/N=C/c1ccc(OCC(=O)Nc2cccc(OC)c2)c(OC)c1 | inconclusive: 15.5% [activator] | – |
| CN1c2cccc3cccc(c23)N(C)C1(C)C | inconclusive: 19.7% [activator] | – |
| COc1cc(/C=N/NC(=O)c2cc3ccccc3cc2O)ccc1OCCN1CCCCC1 | – | inconclusive [inhibitor, single point] |
| O=C1NC(c2ccc3c(c2)OCO3)Nc2ccccc21 (stereo not drawn) | – | inconclusive [activator, single point] |
| Cc1onc(-c2ccc(Cl)cc2)c1-c1ccnn1S(=O)(=O)c1cccc(C(F)(F)F)c1 | – | inconclusive [inhibitor, single point] |
| CCCc1nnc(NC(=O)CCC(=O)N2CCCCCC2)s1 | inconclusive: 12% [activator] | – |
| CCN(CC)S(=O)(=O)c1cc(C(=O)Nc2cc(Cl)ccc2N2CCN(C)CC2)ccc1Cl | inconclusive: -16.1% [inhibitor] | – |
| O=C1CCC(C(=O)N2CCC(CO)(Cc3ccc(Cl)cc3)CC2)=NN1 | inconclusive: 16.4% [activator] | – |
| CS(=O)(=O)Nc1ccc(N2CCCCC2)c(Cl)c1 | – | inconclusive [inhibitor, single point] |
| N#C/C(=C\c1ccc(OC(=O)c2ccccn2)cc1)C(N)=O | – | inconclusive [inhibitor, partial curve] |
| O=S(=O)(c1ccc(Cl)cc1)N(CCCN1CCOCC1)Cc1cccs1 | – | inconclusive [inhibitor, full curve, poor fit] |
| CCOc1cc(/C=C2\C(=O)NN(c3ccccc3)C2=O)cc([N+](=O)[O-])c1O | inactive: -1.96% | – |
| c1ccc2c(N3CCCCC3)nc(N3CCCCC3)nc2c1 | – | inconclusive [activator, partial curve, poor fit] |
| Cn1cc(CN(Cc2ccccn2)C[C@@H]2CCC(=O)N2)c(-c2ccccc2F)n1 | inconclusive: 16.5% [activator] | – |
| O=c1[nH]cc(F)c(=O)[nH]1 | inactive: -2.21% [at 15.4 µM] | – |
| CC(C)C(=O)Nc1ccc(C(=O)N2CCCCCC2)cc1 | – | inconclusive [inhibitor, single point] |
| CC(=O)OC1=Cc2c(ccc3ccc(=O)oc23)OC1(C)C | – | inconclusive [activator, single point] |
| OCCNc1nc(Cl)nc(NCc2ccco2)n1 | inconclusive: 14.2% [activator] | – |

| SMILES | activity change, negative = inhibition | Potency |
| --- | --- | --- |
| CCOc1ccc(N2C(=O)CC(N(CCc3ccccc3)C(=O)/C=C/C(=O)O)C2=O)cc1 (stereo not drawn) | inconclusive: 18.4% [activator] | – |
| CN1CCN(C(=O)/C=C\c2ccc(Cl)cc2)CC1 | – | inconclusive [inhibitor, full curve, poor fit] |
| COc1ccc(-n2nnnc2/C=C\Nc2ccccc2C(=O)c2ccccc2)cc1 | – | inconclusive [inhibitor, single point] |
| O=S(=O)(CCc1ccccc1)/N=C/c1cccs1 | inconclusive: 17% [activator] | – |
| CCc1cc2c3c(c(=O)oc2cc1O)CCCC3 | – | inconclusive [activator, partial curve] |
| CC(=O)Nc1cccc(C(=O)OCc2ccc(C(=O)Oc3ccc(Cl)cc3)cc2)c1 | – | inconclusive [inhibitor, partial curve, poor fit] |
| O=C(O)CCCN1C(=O)C(=O)/C(=C(/O)c2ccccc2)C1/C=C/c1ccccc1 (stereo not drawn) | inconclusive: 18.3% [activator] | – |
| COCCCNC(=S)NCCc1ccc(F)cc1 | inactive: 0.772% | – |
| CCc1nnc(NC(=O)CSc2nnc(Cc3cccn3C)n2CCOC)s1 | inconclusive: -16.4% [inhibitor] | – |
| CC(C)c1ccc(OCC(O)Cn2cnc3ccccc32)cc1 (stereo not drawn) | – | inconclusive [inhibitor, single point] |
| COC(=O)c1cc2c(s1)-c1ccccc1OC2 | – | inconclusive [activator, partial curve] |
| COc1ccc(CCNC(=O)CN2CCCc3ccccc32)cc1OC | – | inconclusive [inhibitor, single point] |
| CCS(=O)(=O)c1ccc2oc(Nc3cccc(OC)c3)nc2c1 | – | inconclusive [inhibitor, full curve] |
| Cc1cc(=O)oc2cc(NC(=S)NCc3ccccn3)ccc12 | – | inconclusive [activator, single point] |
| Nc1ccc(S(=O)(=O)Nc2nccc(/C=C/c3ccc(Br)s3)n2)cc1 | – | inconclusive [inhibitor, single point] |
| CCN(CC(=O)Nc1cc(OC)ccc1OC)Cc1nc2ccccc2c(=O)[nH]1 | – | inconclusive [activator, single point] |
| O=[N+]([O-])c1cccc(C(=S)N2CCN(c3ccccc3F)CC2)c1 | – | inconclusive [inhibitor, partial curve] |
| CCOc1ccc(N2C(=O)CN(O)C=C3N=c4ccccc4=C32)cc1 | inconclusive: -16.7% [inhibitor] | – |
| CCOC(=O)c1nc2nc(-c3cccs3)cc(C(F)(F)F)n2n1 | – | inconclusive [activator, partial curve] |
| CCOC(=O)Cn1nc(-c2ccc(F)cc2)oc1=O | – | inconclusive [inhibitor, single point] |
| COc1ccc(-c2c(C#N)c(N)nc3c2CCc2ccccc2-3)cc1OC | – | inconclusive [activator, partial curve] |
| COCCNC(=O)/C(C#N)=C/c1ccc(N2CCOCC2)o1 | – | inconclusive [inhibitor, single point] |
| Cc1ccc2nc(-c3ccccc3N)[nH]c2c1 | – | inconclusive [activator, full curve] |

| SMILES | activity change, negative = inhibition | Potency |
| --- | --- | --- |
| O=c1[nH][nH]c(=S)n1C1CCCCC1 | inactive: 2.3% [at 15.4 µM] | – |
| O=c1oc2ccccc2cc1-c1cn2cccnc2n1 | – | inconclusive [activator, single point] |
| COc1ccc(N2CCN(c3n[nH]c(N)n3)CC2)cc1 | inactive: 9.15% | – |
| CCOC(=O)c1c(C)n(OCc2ccccc2)c2ccc3nonc3c12 | – | inconclusive [activator, single point] |
| O=C(CSc1nc2ccccc2c(=O)[nH]1)Nc1ccc(S(=O)(=O)N2CCCC2)cc1 | – | inconclusive [inhibitor, partial curve] |
| S=C(Nc1ccc(Nc2ccccc2)cc1)N1CCN(c2ncccn2)CC1 | inactive: 1.8% | – |
| Nc1nc(-c2ccccc2)c(-c2ccc([N+](=O)[O-])cc2)s1 | inactive: -5.12% | – |
| CCOC(=O)c1ccc(-n2c(CN(CC)CC)nc3ccc([N+](=O)[O-])cc3c2=O)cc1 | – | inconclusive [inhibitor, partial curve] |
| CCn1cc([N+](=O)[O-])c(C(=O)Nc2nc(-c3ccc(C)cc3)c(C)s2)n1 | – | inconclusive [inhibitor, single point] |
| O=C(CSc1nnnn1Cc1ccccc1)N1CCN(c2ccccc2)CC1 | – | inconclusive [inhibitor, full curve, poor fit] |
| O=C(c1cc2nc(-c3ccco3)cc(C(F)(F)F)n2n1)N1CCN(c2ccccn2)CC1 | – | inconclusive [inhibitor, single point] |
| COc1ccc(Cl)cc1NC(=O)CN(C)C(C)C(=O)NCC1CCCCC1 (stereo not drawn) | – | inconclusive [inhibitor, single point] |
| COC(=O)c1cc(=O)n2c(sc3ccccc32)c1C#N | – | inconclusive [activator, partial curve] |
| O=C(Nc1ccc2c(c1)OCCO2)C1CCN(S(=O)(=O)c2ccccc2)CC1 | inconclusive: 0.718% [activator] | – |
| Cc1c(Cl)c(C(=O)Nc2nc3ccccc3n2CCN2CCCCC2)nn1C | inactive: 1.96% | – |
| Cc1ccc(CNc2ncc(-c3ccc4c(c3)OCO4)n2C)cc1 | inactive: -2.82% | – |
| Cc1cccc(N(C(=O)Cn2nnc3ccccc32)C(C(=O)NCc2ccco2)c2ccncc2)c1 (stereo not drawn) | – | inconclusive [inhibitor, single point] |
| Cc1ccc(NC(CNS(=O)(=O)c2ccc(Cl)cc2)c2ccccc2)cc1 (stereo not drawn) | – | inconclusive [inhibitor, single point] |
| O=c1[nH]c2ccccc2nc1/C=C/c1ccc(O)cc1 | – | inconclusive [inhibitor, single point] |
| COC(=O)c1c(-c2ccc(C(C)(C)C)cc2)csc1NC(=O)C1C2CCC(O2)C1C(=O)O (stereo not drawn) | – | inconclusive [inhibitor, single point] |
| Cn1c(CN2CCCCC2)nc2cc(NC(=O)c3ccc(Cl)cc3)ccc21 | – | inconclusive [inhibitor, single point] |
| Nc1cc(N)c(OCC(F)(F)F)cc1OCC(F)(F)F | inactive: 2.13% | – |
